Assay results taken from the supplement of paper PMC4967469.

Compound: N.N.[Cl][Pt][Cl] [Cisplatin]
Assay: Viability of human cancer cell lines after 72 h of drug (GDSC screen)
Conditions: top dose inferred
Experimental: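 Human cancer cell lines in 384-well plates, medium with 10% serum, drug for 72 h over a 256-fold dose range (nine 2-fold or five 4-fold steps up to the top dose). Adherent lines were fixed and stained with the nucleic acid dye Syto60, suspension lines read with resazurin; signal relative to control wells, capped at 0 and 100%. One two-parameter sigmoid per drug and line, fitted in a mixed model over all curves with the slope shared within a line.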

Cell Line	AUC	IC50
SK-MEL-30 (melanoma, adherent, top dose 10 µM)	0.778	4.26 µM
SK-MEL-31 (melanoma, adherent, top dose 10 µM)	0.926	> 10 µM
SK-MG-1 (glioma, adherent, top dose 10 µM)	0.825	6.11 µM
SK-MM-2 (myeloma, suspension, top dose 10 µM)	0.981	> 10 µM
SK-N-AS (neuroblastoma, adherent, top dose 10 µM)	0.864	> 10 µM
SK-N-DZ (neuroblastoma, adherent, top dose 10 µM)	0.892	> 10 µM
SK-N-FI (neuroblastoma, adherent, top dose 10 µM)	0.976	> 10 µM
SK-N-SH (neuroblastoma, adherent, top dose 10 µM)	0.843	7 µM
SK-OV-3 (ovary, adherent, top dose 10 µM)	0.946	> 10 µM
SK-PN-DW (Ewing sarcoma, adherent, top dose 10 µM)	0.6	1.19 µM
SK-UT-1 (soft tissue, adherent, top dose 10 µM)	0.897	> 10 µM
SKG-IIIa (cervix, adherent, top dose 10 µM)	0.803	7.06 µM
SKN (uterus, adherent, top dose 10 µM)	0.836	8.71 µM
SKN-3 (head and neck, adherent, top dose 10 µM)	0.794	5.54 µM
SLVL (B-cell lymphoma, suspension, top dose 10 µM)	0.859	9.13 µM
SNB75 (glioma, adherent, top dose 10 µM)	0.925	> 10 µM
SNG-M (endometrium, adherent, top dose 10 µM)	0.951	> 10 µM
SNU-61 (large intestine, adherent, top dose 6 µM)	0.956	> 6 µM
SNU-81 (large intestine, adherent, top dose 10 µM)	0.948	> 10 µM
SNU-182 (liver, adherent, top dose 10 µM)	0.794	4.83 µM
SNU-387 (liver, adherent, top dose 10 µM)	0.903	> 10 µM

Cell Line	AUC	IC50
SNU-407 (large intestine, adherent, top dose 10 µM)	0.902	> 10 µM
SNU-423 (liver, adherent, top dose 10 µM)	0.955	> 10 µM
SNU-449 (liver, adherent, top dose 10 µM)	0.957	> 10 µM
SNU-C1 (large intestine, suspension, top dose 10 µM)	0.98	> 10 µM
SNU-C2B (large intestine, adherent, top dose 10 µM)	0.932	> 10 µM
SNU-C5 (large intestine, adherent, top dose 10 µM)	0.896	> 10 µM
SR (lymphoid neoplasm, suspension, top dose 10 µM)	0.821	5.04 µM
ST486 (Burkitt lymphoma, suspension, top dose 10 µM)	0.99	> 10 µM
STS-0421 (soft tissue, adherent, top dose 10 µM)	0.892	> 10 µM
SU8686 (pancreas, adherent, top dose 10 µM)	0.879	> 10 µM
SU-DHL-4 (B-cell lymphoma, suspension, top dose 10 µM)	0.997	> 10 µM
SU-DHL-5 (B-cell lymphoma, suspension, top dose 10 µM)	0.857	5.15 µM
SU-DHL-6 (B-cell lymphoma, suspension, top dose 10 µM)	0.965	> 10 µM
SU-DHL-16 (B-cell lymphoma, suspension, top dose 10 µM)	0.982	> 10 µM
SUIT-2 (pancreas, adherent, top dose 10 µM)	0.825	6.37 µM
SUP-B8 (B-cell leukaemia, suspension, top dose 10 µM)	0.979	> 10 µM
SUP-B15 (lymphoblastic leukaemia, suspension, top dose 10 µM)	0.8	4.62 µM
SUP-HD1 (Hodgkin lymphoma, suspension, top dose 10 µM)	0.891	> 10 µM
SUP-M2 (anaplastic large cell lymphoma, suspension, top dose 10 µM)	0.784	3.22 µM
SUP-T1 (T-cell lymphoblastic leukaemia, suspension, top dose 10 µM)	0.973	> 10 µM
SW13 (adrenal gland, adherent, top dose 10 µM)	0.897	> 10 µM

Cell Line	AUC	IC50
SW48 (large intestine, adherent, top dose 10 µM)	0.883	> 10 µM
SW620 (large intestine, adherent, top dose 10 µM)	0.857	6.67 µM
SW626 (ovary, adherent, top dose 10 µM)	0.945	> 10 µM
SW684 (fibrosarcoma, adherent, top dose 10 µM)	0.982	> 10 µM
SW756 (cervix, adherent, top dose 10 µM)	0.836	8.51 µM
SW780 (bladder, adherent, top dose 10 µM)	0.883	> 10 µM
SW948 (large intestine, adherent, top dose 10 µM)	0.96	> 10 µM
SW954 (urogenital system, adherent, top dose 10 µM)	0.889	> 10 µM
SW962 (urogenital system, adherent, top dose 10 µM)	0.933	> 10 µM
SW982 (soft tissue, adherent, top dose 10 µM)	0.845	7.58 µM
SW1271 (small cell lung carcinoma, adherent, top dose 10 µM)	0.942	> 10 µM
SW1417 (large intestine, adherent, top dose 10 µM)	0.969	> 10 µM
SW1573 (lung adenocarcinoma, adherent, top dose 10 µM)	0.932	> 10 µM
SW1710 (bladder, adherent, top dose 10 µM)	0.948	> 10 µM
SW1783 (glioma, adherent, top dose 10 µM)	0.938	> 10 µM
SW1990 (pancreas, adherent, top dose 10 µM)	0.81	6.4 µM
Saos-2 (osteosarcoma, adherent, top dose 10 µM)	0.917	> 10 µM
SiHa (cervix, adherent, top dose 10 µM)	0.894	> 10 µM
T47D (breast, adherent, top dose 10 µM)	0.954	> 10 µM

Lines with a small IC50 respond at low doses; a fit beyond the top or the lowest dose is shown as a bound at that dose. AUC is the area under the same curve over the 256-fold range up to the top dose, as a fraction: 1 means no effect, lower means more sensitive. An inferred top dose is not printed in the source and was worked back from the curve model.
